{
  "source": "patent US12173057B2",
  "about": "“Antibodies and therapeutic uses thereof” (Ibex Biosciences, Inc., priority 2018, dated 2024)",
  "key": {"MDA-MB-231 cells": {"tested_on": "MDA-MB-231 cells", "assay": "ORIS cell migration (motility) assay", "assay_type": "cell-based, human", "conditions": "for reduction in cell motility / biological activity, human chimeric versus murine mAbs: overall comparison, 1 μg/mL treatment", "procedure": "Cell motility assays utilized the Platypus Technologies ORIS™ cell migration assay platform, which is generally described at platypustech.com/discoverAssay.html.\nSpecifically, the filamin-A antibodies of the present disclosure were evaluated in the ORIS™ cell migration assay, which used tri-coated 96 well plates (Platypus #CMATR1.101). Cells were seeded at approximately 50,000 cells/well. Cells were incubated overnight at 37° C. without CO2 in DMEM, in the case of HEK-293 cells, or L-15 containing 10% FBS, in the case of MDA-MB-231 cells. Stoppers covering cell growth chambers were removed with the ORIS™ stopper tool, growth media was removed, and wells were gently washed with 100 microliters of sterile PBS. Stoppers were left in place in reference wells until the staining step to serve as pre-migration controls. After washing, a 100 microliter volume of fresh culture media containing the specific treatment was added to each well. The cells were then allowed to incubate overnight. At the end of the incubation period, cells were fluorescently stained with Calcein AM for 30 minutes. Fluorescence was then measured using a microplate reader with a Detection Mask in place.\nFIGS. 1 and 2 depict the relative fluorescence units (RFUs) present in the detection zones for each condition (mean+/−S.D., n=2 wells/condition).\nWells containing the cells existed in three formats: coated with collagen, coated with fibronectin, or a tissue culture (TC) treatment.\nWell treatments were as follows: no antibody control, mouse antibody (mAb FLNA 1 mcg/ml), mouse antibody (mAb FLNA 20 mcg/ml), human chimeric antibody (hAb FLNA 1 mcg/ml), human chimeric antibody (hAb FLNA 20 mcg/ml), apicdin (100 nM), cytochalasin B (30 micromolar); see FIG. 1. An increase in the number of RFUs correlates with an increase in cellular motility."}, "filamin-A": {"tested_on": "filamin-A", "assay": "Immunofluorescence assays with MDA-MB-231 breast cancer cell line", "assay_type": "cell-based, human", "procedure": "Characterization of the filamin-A mAbs was performed using immunofluorescence assays with the MDA-MB-231 breast cancer cell line. […] For comparison, the AHO1402 mAb and another commercially available mAb, TI10 (Millipore MAB1680-C), were assayed at the same time.\nThe primary antibodies utilized in the immunofluorescence assays were as follows: • Anti-Filamin-A, clone TI10 (Millipore, p/n MAB1680-C) • Anti-Filamin-A, clone 209 #13 (Life Technologies, p/n AHO1402) • Anti-Filamin-A, mouse mAb • Anti-Filamin-A, human chimeric mAb • Anti-beta Actin, rabbit polyclonal (Rockland, p/n 600-401-886S)\nTwo primary methods of Immunofluorescence staining were utilized. The first method comprises single staining or double staining with methanol as a fixative and 0.2% Triton as a permeabilization agent, which is described in Alper et al. 2009. The second method utilizes a double staining technique with 2% paraformaldehyde as a fixative and 0.2% triton as a permeabilization agent.\nPrimary antibodies were incubated with the fixed and permeabilized cells for 1 hour at room temperature at a concentration of 1.25 mcg/ml. After one or more wash steps, secondary antibodies were incubated with the cells for 1 hour at room temperature. […]"}, "[1]": {"conditions": "fibronectin coated wells, 1 μg/mL"}},
  "data": [
    {"molecule": "human chimeric antibody: human chimeric anti-filamin-A mAb of the disclosure; b310 names B185 and B411 without saying which gave the values (antibody) heavy: EVKLVESGGGLVQPGGSLKLSCAASGFTFSSYTMSWVRQTPEKRLEWVAYISNGGGSTYYPDTVKGRFTISRDNAKNTLYLQMSSLKSEDTAMYYCASDGLLRPFAYWGQGTLVTVSA[human IgG1 constant region skipped] light: DIVMTQSHKFMSTSVGDRVSITCKASQDVSIDVAWYQQKPGQSPKLLIYSASHRYTGVPDRFTGSGSGTDFTFTISGVQAEDLAVYFCQQHYSTPLTFGAGTKLELKRTVAAPSVFIFPPSDEQLKSGTASVVCLLNNFYPREAKVQWKVDNALQSGNSQESVTEQDSKDSTYSLSSTLTLSKADYEKHKVYACEVTHQGLSSPVTKSFNRGEC", "values": [
      {"measurement": "effect on cell motility", "setting": "MDA-MB-231 cells; collagen coated wells", "result": "inhibitory effect on cell motility"},
      {"measurement": "effect on cell migration", "setting": "MDA-MB-231 cells; collagen treated wells, 1 μg/mL", "result": "reduction in cell migration"},
      {"measurement": "difference in inhibiting cell motility, as compared to the murine antibody", "setting": "MDA-MB-231 cells; [1]", "result": "~100", "unit": "%"},
      {"measurement": "effect on cell motility / cell migration", "setting": "MDA-MB-231 cells; [1]", "result": "substantially lower level of cell motility than the murine antibody"},
      {"measurement": "effect on cell motility / cell migration", "setting": "MDA-MB-231 cells; fibronectin coated wells, 1 μg/mL, listed as human chimeric mAbs", "result": "reduction in cell migration"},
      {"measurement": "cell motility (relative fluorescence units in detection zone)", "setting": "MDA-MB-231 cells; fibronectin coated wells, antibody 1 μg/mL, overnight incubation", "result": 106.26, "unit": "RFU"},
      {"measurement": "reduction in cell motility / biological activity, human chimeric versus murine mAbs", "setting": "MDA-MB-231 cells; listed as human chimeric mAb", "result": "greater reduction in cell motility than the murine mAbs"},
      {"measurement": "reduction in cell motility / biological activity, human chimeric versus murine mAbs", "setting": "MDA-MB-231 cells; listed as human chimeric mAbs", "result": "stronger biological activity than the murine mAbs"},
      {"measurement": "immunofluorescence staining pattern", "setting": "filamin-A; MDA-MB-231 cells, primary antibody 1.25 mcg/ml", "result": "punctate staining pattern"},
      {"measurement": "immunofluorescence staining pattern", "setting": "filamin-A; first method: methanol fixative, 0.2% Triton permeabilization", "result": "reproduced the punctuate staining pattern"}
    ]}
  ]
}
